Sequences with one replicate were seen in a single cluster, so their values are uncertain.
System: ATP
Experiment: switch fluorescence ratio, 500 uM ATP over buffer (Cy3 cluster intensity, sum of 5 cycles each) (fold (ratio)); higher = stronger signal-on switching upon ATP binding; sequences stand for … in TCGTCGGCAGCGTCAGATGTGTATAAGAGACAGTTTTTTTTTTTTTTTTTTTTTTTTT…TC
Details: aptamer strand: ATP DNA aptamer (quencher-CACCTGGGGGAGTATTGCGGAGGAAGG + anchor), 100 nM annealed; ATP concentration: 500 uM; one replicate
Summary of the method: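 Clusters with intensities outside 100-1000 RFU were excluded. The remaining Cy3-labelled switching-strand clusters on a modified Illumina MiSeq flow-cell had been annealed to 100 nM quencher-labelled ATP aptamer and imaged in selection buffer, then after 15 min with 500 uM ATP at 22 °C, for five cycles separated by NaOH stripping and re-annealing. The fluorescence ratio, averaged per switch-domain sequence, is each cluster's summed target-cycle Cy3 intensity over its summed buffer-cycle Cy3 intensity.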
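Note: ATP exposure 15 min at 22 °C before imaging.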

CAAAAAGATA
switch fluorescence ratio: 1

CAATGGAAGT
switch fluorescence ratio: 0.995

GTCATGCATC
switch fluorescence ratio: 0.99

GACATTGGTA
switch fluorescence ratio: 0.97

GGTCGGGACT
switch fluorescence ratio: 1.04

TATTAAGTGT
switch fluorescence ratio: 0.968

CTAATAAGGG
switch fluorescence ratio: 0.97

TACGACTTTC
switch fluorescence ratio: 1.09

CGAAGCGGAA
switch fluorescence ratio: 1.8

AAGTCAGAG
switch fluorescence ratio: 1.03

CGGGTCTAAG
switch fluorescence ratio: 0.992

GCAAAATCCC
switch fluorescence ratio: 1.02

TCAAGAGAT
switch fluorescence ratio: 1.06

CACCGTTAGA
switch fluorescence ratio: 1.05

AGTGTTCATT
switch fluorescence ratio: 0.928

TTTCGCGCAT
switch fluorescence ratio: 1.22

TTGAAGCCGG
switch fluorescence ratio: 0.98

CTGGTTGGCC
switch fluorescence ratio: 1.01

CCAATAGGTT
switch fluorescence ratio: 1

TAATACACGC
switch fluorescence ratio: 1.11

TGACTACGAG
switch fluorescence ratio: 1

CTGTAAAAAG
switch fluorescence ratio: 1.04

ACTGGGGA
switch fluorescence ratio: 1.06

TTAATCAGGG
switch fluorescence ratio: 0.973

AGCAGAGTAA
switch fluorescence ratio: 0.988

ATGGAAGCCC
switch fluorescence ratio: 1

ACCCTGCAAC
switch fluorescence ratio: 2.89

AGGGGTCCAC
switch fluorescence ratio: 0.995

GGGACTACAG
switch fluorescence ratio: 0.904

GGTCTATTTC
switch fluorescence ratio: 0.958

GTAGTTTATT
switch fluorescence ratio: 0.981

TCAGATTAGG
switch fluorescence ratio: 0.956

AATAAAGAAG
switch fluorescence ratio: 0.983

GCGAGCGCAG
switch fluorescence ratio: 1.06

CCGGTACTGG
switch fluorescence ratio: 1.05

TGCGTTTCCC
switch fluorescence ratio: 1.29

GCGGATGCTC
switch fluorescence ratio: 1.06

GATCTCGATC
switch fluorescence ratio: 1.04

GATCAACGCC
switch fluorescence ratio: 1.06

AATGTTG
switch fluorescence ratio: 0.991

CTTGGGTAAC
switch fluorescence ratio: 1.4

AGAAGTATTA
switch fluorescence ratio: 1

ATCGAAATTG
switch fluorescence ratio: 0.962

GGGACCTCGC
switch fluorescence ratio: 1.04

GTCTCAGGTG
switch fluorescence ratio: 1.03

GGGGTCATCG
switch fluorescence ratio: 1.01

CATAGGAATA
switch fluorescence ratio: 1.12

GGGTTTCCTA
switch fluorescence ratio: 0.966

ATTCTGCCGG
switch fluorescence ratio: 0.973

AAGCGCGTAT
switch fluorescence ratio: 1.45

ACGTTTAGCC
switch fluorescence ratio: 1.11

CTGGGACTCG
switch fluorescence ratio: 1.02

CCGTTTGAGC
switch fluorescence ratio: 1.05

ATGAGAAGT
switch fluorescence ratio: 0.984

GGATACGCAT
switch fluorescence ratio: 2.09

CATGAGATGG
switch fluorescence ratio: 0.97

TAGCTGGACG
switch fluorescence ratio: 1.03

CCGGTACGAT
switch fluorescence ratio: 1.15

TCCCCCCTAG
switch fluorescence ratio: 1.43

ACAGCTGACT
switch fluorescence ratio: 1.01

TGTGACGTTT
switch fluorescence ratio: 1.03

AAGGCACATT
switch fluorescence ratio: 1.14

CCGATTTTCA
switch fluorescence ratio: 1.04

TCTTGAGTCC
switch fluorescence ratio: 0.985

TTTGGTTAGA
switch fluorescence ratio: 1.05

CGCCAACGAG
switch fluorescence ratio: 1.16

CTGAGGCGCA
switch fluorescence ratio: 0.973

GTGTCCGTCG
switch fluorescence ratio: 1.01

AACTCAGGAA
switch fluorescence ratio: 1.15

AGATTTATAA
switch fluorescence ratio: 1.04

TGGCTAATTT
switch fluorescence ratio: 1.03

TCTCTTCAGG
switch fluorescence ratio: 1.08

TCGATCATCG
switch fluorescence ratio: 1.01

GCTTCGTAGC
switch fluorescence ratio: 1.03

GATCATCTAC
switch fluorescence ratio: 1.05

ACAAGTGCAC
switch fluorescence ratio: 1.04

ATTAGCTGG
switch fluorescence ratio: 0.989

CTAAGAGCTA
switch fluorescence ratio: 1.05

TTTGGCTTA
switch fluorescence ratio: 0.977

GTACTACATG
switch fluorescence ratio: 1.01

CGGAAGCTGT
switch fluorescence ratio: 1.02

GGATGCGTGC
switch fluorescence ratio: 1.02

TGTCCTCGGT
switch fluorescence ratio: 1.04

ACTACATCTA
switch fluorescence ratio: 1.06

TCGTGAAGTG
switch fluorescence ratio: 0.976

TCGGTGTGTT
switch fluorescence ratio: 0.974

GCGGGTGTTG
switch fluorescence ratio: 0.98

TTCAGGAATT
switch fluorescence ratio: 1.05

TCTTAGTGAC
switch fluorescence ratio: 0.979

GGTATAGG
switch fluorescence ratio: 0.98

TGGTCCTTTG
switch fluorescence ratio: 1.02

TAATACGGGG
switch fluorescence ratio: 0.986

CCGAGGTCAG
switch fluorescence ratio: 2.03

TGCCAACGTC
switch fluorescence ratio: 1.03

GCTTTCTGTA
switch fluorescence ratio: 0.993

GTTTAATTCG
switch fluorescence ratio: 1.04

ATAATCGTA
switch fluorescence ratio: 1

TTACCCCAAC
switch fluorescence ratio: 1.17

CCGGCGACGT
switch fluorescence ratio: 0.952

CAATATTGTG
switch fluorescence ratio: 0.993

GGTACCCGTG
switch fluorescence ratio: 1.05

CGATCTAGG
switch fluorescence ratio: 0.998

CATGTATCAC
switch fluorescence ratio: 0.986

TTCAATGATG
switch fluorescence ratio: 1.03

ATTGTGAATT
switch fluorescence ratio: 0.979

CAGTAACGAA
switch fluorescence ratio: 1.04

GATTCGCTGG
switch fluorescence ratio: 1

GCAATGCGGC
switch fluorescence ratio: 2.43

AATAACACCC
switch fluorescence ratio: 1.1

AGGAGCAAGT
switch fluorescence ratio: 1.21

GATAGGTCTG
switch fluorescence ratio: 0.993

GCGTTCGGT
switch fluorescence ratio: 0.976

GCGAAGAGGT
switch fluorescence ratio: 0.975

GTTTTCC
switch fluorescence ratio: 1.03

AACTGTGGA
switch fluorescence ratio: 0.963

GGTGGTCGTA
switch fluorescence ratio: 1.08

CGGGAAGACT
switch fluorescence ratio: 1

AGGACCCGTC
switch fluorescence ratio: 1.03

TTAATTTCT
switch fluorescence ratio: 1.03

GCCTTTGCAA
switch fluorescence ratio: 1.41

AGTGAGGCCA
switch fluorescence ratio: 0.957

ACCTGTAC
switch fluorescence ratio: 1.47

GAATCTAACA
switch fluorescence ratio: 0.976

TTGATAAAT
switch fluorescence ratio: 1.01

TAGGACTGAA
switch fluorescence ratio: 0.978

CCCGATAGCA
switch fluorescence ratio: 1.33

CTCCGGGTGG
switch fluorescence ratio: 3.95

TTATTAACGT
switch fluorescence ratio: 1.01

TAGATTCCCA
switch fluorescence ratio: 0.994

GCGGCTTGAG
switch fluorescence ratio: 1.02

TTCACCCGTG
switch fluorescence ratio: 1

ACAGTTGCCG
switch fluorescence ratio: 0.979

GTCGGTCATA
switch fluorescence ratio: 0.981

GAGAACTACA
switch fluorescence ratio: 1.02

CTTCTACTAT
switch fluorescence ratio: 1.01

GAGTAAGCCA
switch fluorescence ratio: 0.99

AGGTACCTTA
switch fluorescence ratio: 0.993

CTCTTTAAG
switch fluorescence ratio: 0.97

TGGTTGCTTT
switch fluorescence ratio: 1.06

GCCGATATGG
switch fluorescence ratio: 0.957

TTTTAACCC
switch fluorescence ratio: 0.949

ACTATGTAA
switch fluorescence ratio: 1.02

GACCGCTTGT
switch fluorescence ratio: 1.06

ATTGCGGCTT
switch fluorescence ratio: 1.01

TTGGTGCTTA
switch fluorescence ratio: 1.08

TTGGCGTAGA
switch fluorescence ratio: 1.02

CCCCAGAGCC
switch fluorescence ratio: 1.41

CGTAATGTGG
switch fluorescence ratio: 1

AACCGATCCC
switch fluorescence ratio: 1.41

CGCATAAGTC
switch fluorescence ratio: 1.56

ACGTTCAGCC
switch fluorescence ratio: 1.04

ATTGTAGGA
switch fluorescence ratio: 0.982

TGGTCGCTGT
switch fluorescence ratio: 1.06

GAACACGATA
switch fluorescence ratio: 1.32

GAGTGGGCTA
switch fluorescence ratio: 1.01

TCTATGTGGT
switch fluorescence ratio: 0.964

AGGTCTACTT
switch fluorescence ratio: 0.984

CCCTTAGGAG
switch fluorescence ratio: 1.03

TGGGACATA
switch fluorescence ratio: 1.02

GGGTACTTTC
switch fluorescence ratio: 1.01

TATTGGCATT
switch fluorescence ratio: 0.971

AGTAGGCGGC
switch fluorescence ratio: 0.996

CCTCACATCC
switch fluorescence ratio: 2.63

AGCTCTCCGG
switch fluorescence ratio: 1.18

GCTATCTAAA
switch fluorescence ratio: 0.988

AAAGTATCAA
switch fluorescence ratio: 0.964

AATTCTGGAT
switch fluorescence ratio: 1.02

GCTGTTCCGT
switch fluorescence ratio: 1

TCGAGTGCGA
switch fluorescence ratio: 1.1

TTATAGCCGG
switch fluorescence ratio: 0.966

CAGGAATAGA
switch fluorescence ratio: 1.02

GCTTAATTGT
switch fluorescence ratio: 1.03

TTCTGCCAGT
switch fluorescence ratio: 1.61

TCTTCCGTCG
switch fluorescence ratio: 1.66

GGATACCCTC
switch fluorescence ratio: 0.997

TTAAATAGGC
switch fluorescence ratio: 1.01

ACGTCGATA
switch fluorescence ratio: 1.03

CGAGGGGTAA
switch fluorescence ratio: 0.975

AGCCGTGGCG
switch fluorescence ratio: 0.946

TAGTGGTTGG
switch fluorescence ratio: 0.968

GAGGCTCCTG
switch fluorescence ratio: 1.02

AGAACACTAA
switch fluorescence ratio: 1.02

ATAGTATCAG
switch fluorescence ratio: 0.944

TATGTTATGG
switch fluorescence ratio: 1.03

GGGGATCTAT
switch fluorescence ratio: 0.945

ATCCTTGGGC
switch fluorescence ratio: 1.02

GGGCACAAGG
switch fluorescence ratio: 0.987

TCCAATTTGC
switch fluorescence ratio: 1.08

AACTCTCTGA
switch fluorescence ratio: 1

ACATGAACGA
switch fluorescence ratio: 1.72

GCTGGTAGGT
switch fluorescence ratio: 0.995

GAAAGTTAGT
switch fluorescence ratio: 1.05

GTAGAATTTA
switch fluorescence ratio: 0.969

CAGTACACC
switch fluorescence ratio: 1.03

AGGAGTCTGC
switch fluorescence ratio: 0.994

TAGCGTTGAT
switch fluorescence ratio: 0.974

CTGTGTTATT
switch fluorescence ratio: 0.986

GTTTGCATTC
switch fluorescence ratio: 1.05

GCGGGGAGCA
switch fluorescence ratio: 0.996

TGCGCCCATG
switch fluorescence ratio: 1.04

TGATGCCAGG
switch fluorescence ratio: 1.19

Source: the supplement of paper PMC10126150
